Measurements as given in paper PMC12136788.
This is one part of the list.

T1: UNK ZnF1-6 (called full-length) (human, UniProt Q9C0B0 30-357)
T1 sequence: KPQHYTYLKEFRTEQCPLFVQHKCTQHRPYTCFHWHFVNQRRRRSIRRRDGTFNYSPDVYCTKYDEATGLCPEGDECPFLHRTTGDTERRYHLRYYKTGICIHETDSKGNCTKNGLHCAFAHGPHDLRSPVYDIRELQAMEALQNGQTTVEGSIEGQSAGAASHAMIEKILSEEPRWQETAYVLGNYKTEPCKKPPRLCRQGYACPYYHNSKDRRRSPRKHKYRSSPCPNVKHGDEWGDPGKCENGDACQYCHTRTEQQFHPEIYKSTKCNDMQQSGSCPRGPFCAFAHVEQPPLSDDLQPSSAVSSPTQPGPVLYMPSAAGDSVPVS

B1: chr2:169206329:169207250:-|CDS|ENSG00000081479|control|control|control (ssRNA)
RNA: GGGAGUUCUACAGUCCGACGAUCAACUGUCAUGUCUCUAGACUAUGACAGUGUAAGUGAUAGAAUCUACUUCACACAAAAUUUAGCCUCUGGAGUUGGACAGAUUUCCUAUGCCACCCUGUCUUCAGGGAUCCAUACUCCAACCAACAGAGGAUUGAGCAUCA
B2: chr17:57972098:57972209:-|3pUTR|ENSG00000136451|unk|FALSE|bound_elsewhere (ssRNA)
RNA: GGGAGUUCUACAGUCCGACGAUCCUAGAAUGUGGUUGUCAGAACCCUGAAAGUAUUAGUUCUAAAAAAAAAAAGAUAUAUACUAGAAGUAAUUGUUUUAUCAAUUCAUUGUAUAAUAAACAGGAGUGAGACUUCAUUGUAUGACAACAGAGGAUUGAGCAUCA
B3: chr16:18805221:18805325:-|3pUTR|ENSG00000157106|unk|total|mutant (ssRNA)
RNA: GGGAGUUCUACAGUCCGACGAUCAAGAAUUCUAUGUUCUGAAAUGCACACUUUCCGAAUGUUUUUCUUUGAAAACAGGCUAACCGUUUUUUCUUUUUUUGACAAAGUUUCAGCUCCUCUUUAAAGUUAUUGUGUCAUUUUUCUCAACAGAGGAUUGAGCAUCA
B4: ENSG00000107863:be:win_251|CDS|ENSG00000107863|bound_else_gene|NA|bound_elsewhere_windowed (ssRNA)
RNA: GGGAGUUCUACAGUCCGACGAUCAAAAUGGAAACAGAGGAGGAAAACAAAGAAACCGCUUGGAACCAAUGGAUACCAUAUUUGUUAAGCAAGUUAAAGAAGGAGGACCUGCUUUUGAAGCUGGAUUAUGUACAGGUGACCGAACAACAGAGGAUUGAGCAUCA
B5: ENSG00000198589:be:win_4901|CDS|ENSG00000198589|bound_else_gene|NA|bound_elsewhere_windowed (ssRNA)
RNA: GGGAGUUCUACAGUCCGACGAUCCAGAUGCAAUCAGCGAGGUGCUAUCUACUCUUUCUUUAGAAGUCAAUAAGUCUCCGGAAACCAAAAAUGAUAGAGGAAAUGACUUGGACACUAAGGCUACACCGUCAGUUUCAGUUUCAACAACAGAGGAUUGAGCAUCA
B6: ENSG00000070961:be:win_4201|3pUTR|ENSG00000070961|bound_else_gene|NA|bound_elsewhere_windowed (ssRNA)
RNA: GGGAGUUCUACAGUCCGACGAUCACUGCUGUAUUUUCAGGAAAAAAAAAAAAAGGGGUGUUUCUAUUGAAACUGUACUAAAUUUUUGCCUACAAUUUACCUUGUUAAAUAUUGUAGAUAAAUUGCUAAUACUAAUAGCCAAAUCAACAGAGGAUUGAGCAUCA
B7: chr1:56708525:56708626:+|3pUTR|ENSG00000162409|unk|FALSE|unique (ssRNA)
RNA: GGGAGUUCUACAGUCCGACGAUCACCUUUCUCAAAUUCUUUUUGCCUCUAUUUAUUUUUGCAUUUCACCAACAGUGAUAAAAUAGUUAAAUGAAACAAAGCAAAGUAUCAACAGUCCCUUAAAUGAGAAUCCUUAUCUUUGAUCAACAGAGGAUUGAGCAUCA
B8: ENSG00000196876:stop:overlap|stop_codon|ENSG00000196876|stop_codon|NA|stop_codon (ssRNA)
RNA: GGGAGUUCUACAGUCCGACGAUCCAGAGGAAGGAAGAAGGGAAAGAGCCAAAAGACAAAAAGAGGUCAGAGAAUCCAAGUGUUAGAGGAGAACAAAAAUUCAGUAUUAUACAGAUCUAAAACUCGCAAGUGAAAGAUUGUUUACAACAGAGGAUUGAGCAUCA
B9: ENSG00000141367:stop:overlap|stop_codon|ENSG00000141367|stop_codon|NA|stop_codon (ssRNA)
RNA: GGGAGUUCUACAGUCCGACGAUCAAGUAAUUGCACUGAAAGCAAAAUCGUGUGGUGGGAGCUAUGCAGCUAUAUUCUGUAGAUAGGAAAGUGUCUCAGCCCAUUGAAGGACAUGCAGCUAGCUUUGCACAGUUUAAGAUGGAACAACAGAGGAUUGAGCAUCA
B10: chr20:56369402:56369507:-|3pUTR|ENSG00000087586|unk|total|mutant (ssRNA)
RNA: GGGAGUUCUACAGUCCGACGAUCAGAAGAGGCCAUGUGUCUCAGAGCUGUUAAGGGCUUAUUUUUUUAAAACAUUGGAGUCACCGCAUGUGUGUAAACUUUAAAUAUGCAAAUAAAUAAGUAUCUAUGUCUGUGUGGAGUGCUCAACAGAGGAUUGAGCAUCA
B11: chr10:74136666:74136778:-|CDS|ENSG00000185009|unk|FALSE|unique (ssRNA)
RNA: GGGAGUUCUACAGUCCGACGAUCUUCAGAGGCUGCAAUUAAGGAUAAUGUGGUCAUAGUAUAUGAACUCUUAGAAGAAAUGUUAGACAAUGGAUUUCCACUGGCUACCGAAUCUAACAUUUUGAAAGAAUUGAUUAAACCACCCAACAGAGGAUUGAGCAUCA
B12: chr22:29695108:29695209:+|3pUTR|ENSG00000186575|msi1|FALSE|unique (ssRNA)
RNA: GGGAGUUCUACAGUCCGACGAUCGUGUGUGUGUGUCUUGCACUCCAGAGCUGACCUCCACCGCCCAGCCUGGGAAGUCAUUGUAGGGAGUGAGACACUGAAGCCCUGAGAAGCCAGUGCCAUCAUCCCCACCCCGCCCAGGGUCAACAGAGGAUUGAGCAUCA
B13: ENSG00000107863:be:win_5651|CDS|ENSG00000107863|bound_else_gene|NA|bound_elsewhere_windowed (ssRNA)
RNA: GGGAGUUCUACAGUCCGACGAUCCCACGACCGACACACCUUUGUCUCUUCAUUGCAACACAGGCAGUUCUUCCAGCACCUUGGCUUCAACAAACAGGCCCCUUCUUUCCAUACCACCACAGUCACCUGACCAAAUAAACGGAGCAACAGAGGAUUGAGCAUCA
B14: chr7:157539055:157540713:-|three_prime_utr|ENSG00000155093|control|control|control (ssRNA)
RNA: GGGAGUUCUACAGUCCGACGAUCACGGAUGUUGUCAGGAAUCAUGAUCUGACUUUAAUUGUGUGUCUUCUAUUAUAACUGCAUAGUAAUAGGGCCCUUAGCUCUCCCGUAGUCAGCGCAGUUUAGCAGUUAAAAGUGUAUUUUCAACAGAGGAUUGAGCAUCA
B15: chr14:59746188:59746291:-|CDS|ENSG00000139970|unk|total|mutant (ssRNA)
RNA: GGGAGUUCUACAGUCCGACGAUCCUGGGUACACCCGGCCCCUCCUUACCAGAUGUGCCUGGGACCGAGUCUCGUGGCUUAUUCCGUUCUGAUUCUGGAACCGAGAUGACUCCUGCAGAGUCCACGGAAGUGAACAAGAUCUUACAACAGAGGAUUGAGCAUCA
B16: ENSG00000113300:stop:overlap|stop_codon|ENSG00000113300|stop_codon|NA|stop_codon (ssRNA)
RNA: GGGAGUUCUACAGUCCGACGAUCUGGAGCUCUUACUGCCUUUCCUGCCCCAAGUCAACGGCAUCCACCUUCCUGGCAGGAGGUAGUCAAGCACCUUCAGAGGACAGCCUUGAUUCACUUGUAAACUUGUGAAAAUCUGAACAUCAACAGAGGAUUGAGCAUCA
B17: chr6:132680848:132683139:-|three_prime_utr|ENSG00000112299|control|control|control (ssRNA)
RNA: GGGAGUUCUACAGUCCGACGAUCGAUAAUUUAAAAAAUGAUGGAUGAGAAAAGAAAGAUUGGUCCGGGUUAAUAUUAUCCUCUAGUAUAAGUGAAUUACUAGUUUCUCUUUAUUUAGACAAACACACACACACCAGAUAAUAUCAACAGAGGAUUGAGCAUCA
B18: ENSG00000198589:be:win_8751|3pUTR|ENSG00000198589|bound_else_gene|NA|bound_elsewhere_windowed (ssRNA)
RNA: GGGAGUUCUACAGUCCGACGAUCGCUGCUGGGUUCUGUAGUUUUAAAAAAUCUAUAUUUUUAGUCAUAAUGAGAAGUCUAUUUUCACCAAUUAUGGAAACAUACAGUGGAGCAAGUAAACCACUUAUUCCAGCUAUAAUAUUACAACAGAGGAUUGAGCAUCA
B19: chr11:62152232:62152344:+|3pUTR|ENSG00000149503|unk|FALSE|unique (ssRNA)
RNA: GGGAGUUCUACAGUCCGACGAUCUGCUCUGUAAAUAGUUGUUUUAAUUUAGCUGAAUGUUAGCAUUUUAGUCUUUGGCAUUUUAGCGUUUGGGAGGUAGAUUAAUAAAGUAUAUUCCUUCAAGCCUGCUGUUGAUACCAUGAACAACAGAGGAUUGAGCAUCA
B20: chr11:125776112:125777381:-|three_prime_utr|ENSG00000196844|control|control|control (ssRNA)
RNA: GGGAGUUCUACAGUCCGACGAUCCACUACGCUCUUUUUCUCUUCCCUGAACCUGAAUUUUGCUCUCCUCUUCUAUGCAUUGGUAGAGAGUGAGAAAGCCAGCUCAUAGUGAAAAGACAAGCAGGCAUAAGGAGACGCAGUGUGCAACAGAGGAUUGAGCAUCA
B21: chr19:12898785:12899385:-|three_prime_utr|ENSG00000161860|control|control|control (ssRNA)
RNA: GGGAGUUCUACAGUCCGACGAUCUCAGAAGUACAGACCAACAGAGAUGGUGAAUGCUGACAGCUGCCGGGAGACUCACGCCUUAGUGACAGUCUCCAGGAGAAGACUGUGAGGCCACCAUUUGGGCCACACUGAGAAAUUGUUCAACAGAGGAUUGAGCAUCA
B22: chr4:185586528:185586629:-|3pUTR|ENSG00000154556|msi1|FALSE|unique (ssRNA)
RNA: GGGAGUUCUACAGUCCGACGAUCAUCCAUAUGAUAUGUUGUACAUUUUAUGGAAAUGUAAUAGAAUCUCACACAUUAUUUUAUAGAAAUAGAGUACAGAAGCAUCACAAGUAUUAAAGUUGGUUUUAGCAAGGAUUAGGAUUACAACAGAGGAUUGAGCAUCA

Each binder was assayed against T1, UNK ZnF1-6 (called full-length) (assay: nsRBNS (natural sequence RNA bind-n-seq); RBNS binding buffer (assumed for nsRBNS): 25 mM Tris pH 7.5, 150 mM KCl, 3 mM MgCl2, 0.01% Triton X-100, 500 ug/ml BSA, 20 U/ml SUPERase-In, 4 C; UNK is unkempt and MSI1 is Musashi-1; names of the RNAs are library labels; protein concentration not given here; high values mean tight binding).

Binder	binding signal [enrichment R]
B1	0.474
B2	4.83
B3	0.554
B4	0.631
B5	0.408
B6	0.837
B7	0.947
B8	0.652
B9	3.79
B10	0.364
B11	0.63
B12	0.743
B13	0.607
B14	3.45
B15	0.531
B16	21.5
B17	5.67
B18	3.47
B19	110
B20	0.574
B21	0.504
B22	11.6
